# From PubChem BioAssay AID1461 (National Center for Advancing Translational Sciences (NCATS), 2008)
# Among all 220,000 compounds or so, about 2,300 (1%) were called active. This list was built around the results that the source calls inconclusive (neither active nor inactive); the mix of calls is not that of the screen. The call rests on the fitted dose curve; in most records, active means well fitted inhibition curve with a large enough effect; inconclusive means small, poorly fitted or top-dose-only effect, or effect the other way; inactive means no such curve, though single readings can be large or run the other way. Potencies of inconclusive entries are left out as doubtful fits.
# Target: Neuropeptide S receptor (Homo sapiens) (UniProt Q6W5P4)
# UniProt Q6W5P4, sequence (Q6W5P4 whole entry, looked up): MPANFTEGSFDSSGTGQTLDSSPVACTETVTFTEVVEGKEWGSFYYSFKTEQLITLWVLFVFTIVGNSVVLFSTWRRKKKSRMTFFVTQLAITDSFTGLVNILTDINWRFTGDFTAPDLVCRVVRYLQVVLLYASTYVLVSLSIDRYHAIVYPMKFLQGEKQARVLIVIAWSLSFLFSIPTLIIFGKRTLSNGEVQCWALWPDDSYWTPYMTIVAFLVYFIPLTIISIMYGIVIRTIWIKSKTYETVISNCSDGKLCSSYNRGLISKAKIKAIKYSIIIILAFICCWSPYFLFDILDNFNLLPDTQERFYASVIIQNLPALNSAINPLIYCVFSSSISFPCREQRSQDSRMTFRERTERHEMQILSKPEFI
# Assay: qHTS Assay for Antagonists of the Neuropeptide S Receptor: cAMP Signal Transduction; further: nearly all actives have a fitted effect of over 50% in size
# Conditions: CHO-NPSR cells, cAMP TR-FRET, antagonist mode; series mostly up to 38.3 µM
# Potency means the concentration at half of the fitted maximal effect; tags describe the fitted curve by direction and shape.
row,SMILES,Potency
1,COc1cc2c(=O)n(Cc3ccco3)c(=O)n(CC(=O)c3cccc(Br)c3)c2cc1OC,inactive
2,Nc1c(S(=O)(=O)O)cc(Nc2ccc(Nc3nc(Cl)nc(Nc4ccc(S(=O)(=O)O)cc4)n3)c(S(=O)(=O)O)c2)c2c1C(=O)c1ccccc1C2=O,"inconclusive [inhibitor, full curve, poor fit]"
3,Cc1ccc2nc(-c3ccc(-c4ccccn4)s3)cn2c1,inactive
4,O=C(c1ccc(Br)cc1)c1sc(N2CCOCC2)nc1-c1ccccc1,inactive
5,COc1ccccc1C(CCN(Cc1cccs1)C(C)=O)c1ccco1 (centres undefined),"inconclusive [inhibitor, single point]"
6,Cc1ccc(Oc2ccc3c(c2)C(=O)N(c2ccc(S(=O)(=O)Nc4nccs4)cc2)C3=O)cc1,"inconclusive [inhibitor, single point]"
7,O=C(COC(=O)c1ccco1)Nc1ccc2c(c1)OCCO2,inactive
8,COc1ccccc1-c1nc2s/c(=C\c3cccs3)c(=O)n2n1,"inconclusive [inhibitor, single point]"
9,CCn1cc(C(c2ccccc2)C(C(C)=O)[N+](=O)[O-])c2ccccc21 (centres undefined),"inconclusive [activator, single point]"
10,CC(C)COc1ccc(C(=O)N2C(=O)c3ccc(N)cc3C2=O)cc1,"inconclusive [activator, single point]"
11,Cc1[nH]c2ccccc2c1CC#N,inactive
12,O=C(Cc1cccs1)N(CC1CCCO1)C1(C(=O)NC2CCCCC2)CCCCC1 (centres undefined),"inconclusive [inhibitor, single point]"
13,COC(=O)c1cc(=O)n(CCc2ccccc2)c(=Nc2ccc(F)cc2)s1,active: 10 µM
14,Clc1cccc(Cl)c1CO/N=C/c1c(-c2ccccc2)nc2n1CCS2,"inconclusive [inhibitor, single point]"
15,O=C1C2C3C=CC(C4CC34)C2C(=O)N1/N=C/c1ccc(-c2ccc(F)cc2[N+](=O)[O-])o1 (centres undefined),"inconclusive [inhibitor, single point]"
16,COC(=O)C(C)(C)ONC(=O)Nc1ccccc1Cl,inactive
17,C=CCn1c(COc2ccccc2F)nnc1SCC(=O)c1c[nH]c2ccccc12,inactive
18,O=C(CCc1ccc(S(=O)(=O)NC2CCCCC2)cc1)N(Cc1ccccc1)Cc1ccccc1,"inconclusive [inhibitor, partial curve]"
19,COc1ccc(S(=O)(=O)NN=C2CCCCC2)cc1,inactive
20,COC(=O)c1ccc(CNC(=O)c2coc3ccccc3c2=O)cc1,inactive
21,CSc1nc2nc(C(F)(F)F)cc(-c3ccccc3)n2n1,inactive
22,CNc1cc(NS(=O)(=O)c2ccc(N)cc2)nc(NC)n1,"inconclusive [activator, full curve, poor fit]"

row,SMILES,Potency
1,CCCCn1c(NCCC)nc2c1c(=O)[nH]c(=O)n2C,"inconclusive [inhibitor, single point]"
2,Cn1c(SCC(=O)N2CCCCC2)nc2c([nH]c3ccccc32)c1=O,"inconclusive [inhibitor, partial curve]"
3,Cc1ccc(OCc2nc(C#N)c(N3CCN(Cc4ccccc4)CC3)o2)cc1,"inconclusive [inhibitor, partial curve]"
4,CCN(CC)S(=O)(=O)c1ccc2oc(Nc3ccc4c(c3)OCCO4)nc2c1,inactive
5,Cc1cc(C(=O)COC(=O)Cn2cnc3c2c(=O)n(C)c(=O)n3C)c(C)n1C,"inconclusive [activator, partial curve]"
6,CCCCC[C@H](O)/C=C/[C@H]1C=CC(=O)[C@@H]1C/C=C\CCCC(=O)O,inactive
7,Nc1c(C(=O)Nc2nc3ccccc3s2)sc2nc(-c3cccs3)ccc12,active: 10 µM
8,Fc1ccccc1CN1CCCCCCC1,inactive
9,COC(=O)c1ccccc1OCCCOc1ccc(C)cc1OC,"inconclusive [inhibitor, partial curve]"
10,CN=C(Nc1ccc2c(c1)OCO2)SC1CC(=O)N(c2ccccc2)C1=O (centres undefined),"inconclusive [inhibitor, single point]"
11,O=S(=O)(NCc1ccccc1)c1ccc(S(=O)(=O)N(Cc2ccccn2)C2CCCC2)cc1,"inconclusive [inhibitor, single point]"
12,O=[N+]([O-])c1cccc(CNC2CCCCCC2)c1,inactive
13,Cc1cccc(N2CCN(C(=O)C3CCN(S(=O)(=O)c4cccc5cccnc45)CC3)CC2C)c1 (centres undefined),"inconclusive [inhibitor, single point]"
14,O=C(Oc1c(-c2ccccc2)c(=O)n2c3c(cccc13)CC2)c1ccc(Cl)cc1,"inconclusive [activator, single point]"
15,Cc1cccc2sc(NC(=O)CN(C)S(=O)(=O)c3cccs3)nc12,"inconclusive [activator, partial curve]"
16,O=c1[nH]c(NNC(=S)NC2CCCCC2)nc2c1C1(CCCC1)Cc1ccccc1-2,"inconclusive [inhibitor, single point]"
17,CCOC(=O)C1=C(O)/C(=C/c2cn(CC(=O)N3CCCC3)c3ccccc23)SC1=Nc1ccccc1,"inconclusive [inhibitor, single point]"
18,CC12COC3(P(=O)(c4ccccc4)c4ccccc4)CC1CCC23CP(=O)(c1ccccc1)c1ccccc1 (centres undefined),"inconclusive [inhibitor, single point]"
19,CCC1C(=O)N=C(SCC(=O)Nc2ccc(C(=O)OC)cc2)NC1=O (centres undefined),inactive
20,Cc1cc(C)n(-c2cc(N3CCN(C(=O)c4ccc(C(C)(C)C)cc4)CC3)ccc2[N+](=O)[O-])n1,"inconclusive [inhibitor, single point]"
21,CCC(C)(C)C1CCc2c(sc(NC(=O)c3ccoc3C)c2C(N)=O)C1 (centres undefined),"inconclusive [inhibitor, partial curve, poor fit]"
22,Fc1ccccc1N1CCN(c2cnc3ccccc3n2)CC1,"inconclusive [inhibitor, partial curve]"
